Source: paper PMC5154350
These are yes or no findings as the source states them, for the method shown. For some of these results: In cells and extracts the contact can be indirect. Some entries that bind do so weakly or less than the wild type. For some of these results: Where a sequence is shown, tags or fusion partners need not be part of it.

The chains behind the UniProt entries cited, without tags or fusion partners. Where a name states a change or a piece, a line headed by the entry shows the natural chain unless it says otherwise. Residues count along the entry.
UniProt P35968: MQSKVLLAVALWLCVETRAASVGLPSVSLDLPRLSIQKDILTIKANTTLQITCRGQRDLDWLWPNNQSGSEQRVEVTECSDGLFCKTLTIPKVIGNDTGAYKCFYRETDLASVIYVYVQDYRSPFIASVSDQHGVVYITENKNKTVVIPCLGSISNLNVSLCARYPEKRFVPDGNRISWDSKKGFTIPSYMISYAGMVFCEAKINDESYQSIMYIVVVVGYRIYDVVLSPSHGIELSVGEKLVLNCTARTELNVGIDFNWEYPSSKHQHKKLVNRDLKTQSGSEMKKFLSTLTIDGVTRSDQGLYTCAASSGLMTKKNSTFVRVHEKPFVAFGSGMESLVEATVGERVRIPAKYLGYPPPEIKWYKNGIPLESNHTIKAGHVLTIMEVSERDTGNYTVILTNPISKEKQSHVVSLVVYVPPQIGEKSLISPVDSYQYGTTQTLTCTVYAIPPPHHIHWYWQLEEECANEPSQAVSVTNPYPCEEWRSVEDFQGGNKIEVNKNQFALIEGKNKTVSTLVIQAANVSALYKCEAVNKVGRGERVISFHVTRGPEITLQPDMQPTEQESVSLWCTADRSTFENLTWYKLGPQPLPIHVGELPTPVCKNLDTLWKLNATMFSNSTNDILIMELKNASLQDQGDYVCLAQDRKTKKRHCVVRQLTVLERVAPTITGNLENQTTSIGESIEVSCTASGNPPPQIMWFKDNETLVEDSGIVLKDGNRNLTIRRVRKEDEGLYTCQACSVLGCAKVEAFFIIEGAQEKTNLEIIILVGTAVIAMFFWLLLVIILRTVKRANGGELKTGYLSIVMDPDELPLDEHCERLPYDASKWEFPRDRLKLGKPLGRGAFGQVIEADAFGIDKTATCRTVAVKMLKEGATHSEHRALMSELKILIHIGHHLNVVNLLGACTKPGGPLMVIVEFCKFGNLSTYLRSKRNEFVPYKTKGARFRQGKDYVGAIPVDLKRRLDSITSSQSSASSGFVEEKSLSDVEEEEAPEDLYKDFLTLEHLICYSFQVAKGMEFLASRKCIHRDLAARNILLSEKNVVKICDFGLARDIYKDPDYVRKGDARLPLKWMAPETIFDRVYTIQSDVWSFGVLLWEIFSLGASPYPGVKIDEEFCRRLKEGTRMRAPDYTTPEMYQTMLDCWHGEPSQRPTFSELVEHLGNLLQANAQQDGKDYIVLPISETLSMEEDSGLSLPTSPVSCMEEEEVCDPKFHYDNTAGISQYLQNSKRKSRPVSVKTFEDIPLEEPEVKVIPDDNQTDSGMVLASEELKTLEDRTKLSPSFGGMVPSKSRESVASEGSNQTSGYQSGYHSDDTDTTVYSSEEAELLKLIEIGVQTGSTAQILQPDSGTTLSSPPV
vascular endothelial cell growth factor receptor-2 (VEGFR2) (human (endogenous in CAG and HMEC-1 cells)): residues 20-1356 of P35968
UniProt P13612: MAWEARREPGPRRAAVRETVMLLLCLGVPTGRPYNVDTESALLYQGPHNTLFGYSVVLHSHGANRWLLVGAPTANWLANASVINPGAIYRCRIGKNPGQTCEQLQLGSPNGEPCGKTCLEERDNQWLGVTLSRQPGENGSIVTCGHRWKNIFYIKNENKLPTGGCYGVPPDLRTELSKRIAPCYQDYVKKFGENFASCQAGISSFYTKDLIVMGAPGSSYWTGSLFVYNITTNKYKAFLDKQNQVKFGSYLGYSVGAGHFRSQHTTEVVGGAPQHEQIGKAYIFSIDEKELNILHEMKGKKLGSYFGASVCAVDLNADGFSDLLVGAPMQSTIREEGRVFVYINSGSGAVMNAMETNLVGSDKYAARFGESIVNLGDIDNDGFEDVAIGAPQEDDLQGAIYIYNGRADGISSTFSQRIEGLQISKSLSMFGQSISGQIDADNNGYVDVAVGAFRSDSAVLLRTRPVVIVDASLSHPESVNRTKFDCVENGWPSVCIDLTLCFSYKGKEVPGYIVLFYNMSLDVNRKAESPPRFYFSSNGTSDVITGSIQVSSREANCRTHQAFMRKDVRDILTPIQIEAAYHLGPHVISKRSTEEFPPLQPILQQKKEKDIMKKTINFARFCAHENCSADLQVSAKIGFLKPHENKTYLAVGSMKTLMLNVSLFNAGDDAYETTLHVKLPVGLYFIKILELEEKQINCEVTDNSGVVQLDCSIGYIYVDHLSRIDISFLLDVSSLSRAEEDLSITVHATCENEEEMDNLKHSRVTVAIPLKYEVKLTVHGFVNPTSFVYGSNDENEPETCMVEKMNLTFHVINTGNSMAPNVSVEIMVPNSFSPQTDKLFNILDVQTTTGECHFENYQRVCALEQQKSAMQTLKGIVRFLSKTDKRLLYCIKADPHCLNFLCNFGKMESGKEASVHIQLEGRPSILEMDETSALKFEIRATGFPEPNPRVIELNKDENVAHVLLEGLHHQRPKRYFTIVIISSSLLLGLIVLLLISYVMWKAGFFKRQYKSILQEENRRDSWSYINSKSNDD
UniProt P05556: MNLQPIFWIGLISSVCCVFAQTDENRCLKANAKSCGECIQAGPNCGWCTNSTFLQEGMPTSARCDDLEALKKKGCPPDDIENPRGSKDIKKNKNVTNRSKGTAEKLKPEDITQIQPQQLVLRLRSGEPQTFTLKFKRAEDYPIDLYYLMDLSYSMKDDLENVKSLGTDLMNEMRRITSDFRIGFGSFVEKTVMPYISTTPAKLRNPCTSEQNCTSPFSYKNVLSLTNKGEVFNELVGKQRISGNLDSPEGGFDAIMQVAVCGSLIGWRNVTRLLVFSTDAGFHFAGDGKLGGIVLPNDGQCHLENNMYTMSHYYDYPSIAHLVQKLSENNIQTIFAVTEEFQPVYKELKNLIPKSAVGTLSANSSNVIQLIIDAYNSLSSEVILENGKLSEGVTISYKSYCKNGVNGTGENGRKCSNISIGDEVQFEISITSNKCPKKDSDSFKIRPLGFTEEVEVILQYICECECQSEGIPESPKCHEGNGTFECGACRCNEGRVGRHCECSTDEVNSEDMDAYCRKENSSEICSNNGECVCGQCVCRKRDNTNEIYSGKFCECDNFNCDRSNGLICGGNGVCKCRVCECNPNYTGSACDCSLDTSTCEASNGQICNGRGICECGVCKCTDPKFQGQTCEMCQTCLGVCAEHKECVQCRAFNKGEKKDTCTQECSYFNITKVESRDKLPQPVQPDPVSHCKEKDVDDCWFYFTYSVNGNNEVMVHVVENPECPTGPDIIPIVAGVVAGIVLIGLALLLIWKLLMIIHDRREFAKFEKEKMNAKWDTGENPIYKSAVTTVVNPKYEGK

How the values were obtained:
[1] = molecular target: T1, recombinant GST-mouse-S1ED (syndecan-1 ectodomain fused to GST) (mouse) (UniProt P18828); experiment: pull-down; HPSE-low CAG cell lysates incubated at 4 °C overnight with 3 μM GST or GST-S1ED, captured on glutathione sepharose; blots for VLA-4 and VEGFR2; only the target purified
T1 sequence: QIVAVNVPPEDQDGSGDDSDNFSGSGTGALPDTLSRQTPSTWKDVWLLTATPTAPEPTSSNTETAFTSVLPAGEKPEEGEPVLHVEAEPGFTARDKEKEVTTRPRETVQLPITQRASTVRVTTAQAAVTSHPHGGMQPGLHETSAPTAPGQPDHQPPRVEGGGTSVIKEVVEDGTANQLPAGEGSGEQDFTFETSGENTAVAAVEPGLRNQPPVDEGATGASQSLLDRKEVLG

[2] = molecular target: T2, shed mouse Sdc1 ectodomain (mouse) (UniProt P18828); experiment: pull-down; shed mouse Sdc1 (wild type or mutant) captured from conditioned medium on mAb281.2 protein G beads at 4 °C overnight, beads re-incubated with CAG (HPSE-low) cell lysates at 4 °C overnight; blots for VLA-4 and VEGFR2; only the target purified
T2 sequence: T1 sequence

[3] = molecular target: T1, recombinant GST-mouse-S1ED (syndecan-1 ectodomain fused to GST) (mouse); experiment: pull-down; HMEC-1 cell lysate incubated overnight with glutathione beads coated with GST or GST-S1ED; blots for VLA-4 and VEGFR2; only the target purified
[4] = molecular target: T1, recombinant GST-mouse-S1ED (syndecan-1 ectodomain fused to GST) (mouse); experiment: pull-down; recombinant His-tagged VEGFR2 protein precipitated with beads bearing GST or GST-S1ED; blot with anti-His; both purified
[5] = molecular target: vascular endothelial cell growth factor receptor-2 (VEGFR2) (human (endogenous in CAG and HMEC-1 cells)) (UniProt P35968); experiment: pull-down; competition: 30 μM S1ED peptide added to HPSE-low CAG cell lysates with 3 μM GST-S1ED, 4 °C overnight, glutathione sepharose; loss of VLA-4 or VEGFR2 capture read on blots; only the binder purified
[6] = molecular target: very late antigen-4 (VLA-4, α4β1 integrin) (human (endogenous in CAG and HMEC-1 cells)) (UniProt P13612+P05556); experiment: as above

In the case of “very late antigen-4 (VLA-4, α4β1 integrin) (from UniProt P13612 34-1032; P05556 21-798) (complex)”, the binding [1] is reported as “binds”, the binding [2] is reported as “binds” and the binding [3] is reported as “binds”.

“vascular endothelial cell growth factor receptor-2 (VEGFR2) (from UniProt P35968 20-1356)” was tested, and the binding [1] was “binds”, the binding [2] was “binds” and the binding [3] was “binds”.

In the case of “His-recombinant VEGFR2 protein (purified, recombinant VEGFR2 extracellular domain) (from UniProt P35968 20-764) (domain or fragment)”, the binding [4] is reported as “binds”.

B1: S1ED^210-233 peptide (peptide, UniProt P18827 210-233)
peptide: DFTFETSGENTAVVAVEPDRRNQS
In the case of B1, the binding [5] is reported as “no binding (tested: 30 μM)” and the binding [6] is reported as “binds”.

B2: S1ED^210-236 peptide (peptide, UniProt P18827 210-236)
peptide: DFTFETSGENTAVVAVEPDRRNQSPVD
In the case of B2, the binding [5] is reported as “binds” and the binding [6] is reported as “binds”.

B3: S1ED^214-240 peptide (peptide, UniProt P18827 214-240)
peptide: ETSGENTAVVAVEPDRRNQSPVDQGAT
With B3 the binding [5] was “binds” and the binding [6] was “no binding (tested: 30 μM)”.
